{
  "source": "PubChem BioAssay AID651820",
  "about": "(National Center for Advancing Translational Sciences (NCATS), 2012)",
  "note": "Where “and” joins values, the source holds several entries; their conditions need not be identical. Equal values may be shown once. About 12,000 (3.5%) of roughly 340,000 compounds were called active. The shares of active, inactive and inconclusive entries below differ from those in the screen. Calls follow the shape of the dose curve; as a rule, active = well fitted inhibition curve with a large enough effect; inconclusive = small, poorly fitted or top-dose-only effect, or another doubt; inactive = no such curve, though single readings can be large or run the other way. Potencies beside an inconclusive call are fits to weak or partial responses and may not hold up. % is scaled to controls: 0 for no effect and ±100 for the full control effect; potency is read from the fitted curve at half-maximal effect; tags tell the direction and shape of the fitted curve.",
  "data": [
    {"test": "qHTS Assay for Inhibitors of Hepatitis C Virus (HCV)", "settings": "Huh7.5.1 HCVcc-Cre (HCVcc is cell-culture hepatitis C virus) infection, luciferase reporter, 44 h; activity change, negative = inhibition: at 41.8 µM (top of the series)", "how_it_was_run": "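A cell-based infection assay in which seeded cells (1,000 per well) receive test compound after 4 h, are inoculated with HCVcc-Cre at approximately 0.5 moi, and are incubated 44 h before luminescence detection.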", "values": [
      {"molecule": "O=c1[nH]c(CN2CCN(S(=O)(=O)/C=C/c3ccccc3)CC2)nc2cc(Cl)ccc12", "activity change, negative = inhibition": "inactive: -14.7%"},
      {"molecule": "Cc1cccc(CN2CCN(Cc3ccc4nonc4c3)CC2CCO)n1", "note": "(centres undefined)", "activity change, negative = inhibition": "inactive: 14.7%"},
      {"molecule": "CCCc1cc(N2CCOCC2)n2nc(C)c(-c3ccccc3)c2n1", "Potency": "inconclusive: 2.51 µM [inhibitor, partial curve, poor fit]"},
      {"molecule": "COc1ccccc1C(=O)COC(=O)c1cc([N+](=O)[O-])ccc1N1CCOCC1", "Potency": "inconclusive: 14.1 µM [inhibitor, partial curve]"},
      {"molecule": "CCNC(=S)N/N=C(\\C)c1cc2ccccc2o1", "Potency": "inconclusive: 8.91 µM [inhibitor, partial curve]"},
      {"molecule": "CC1CC(C)CN(C(=O)C(C)N2CCN(S(=O)(=O)c3ccc(Br)s3)CC2)C1", "note": "(centres undefined)", "Potency": "inconclusive: 0.562 µM [inhibitor, full curve, poor fit]"},
      {"molecule": "CCC(C)Nc1cc(C)nc2ncnn12", "note": "(centres undefined)", "activity change, negative = inhibition": "inactive: -3.18%"},
      {"molecule": "CCOC(=O)C(C)On1c(-c2cccc(Cl)c2)nc2ccc([N+](=O)[O-])cc21", "note": "(centres undefined)", "Potency": "inconclusive: 14.1 µM [inhibitor, single point]"},
      {"molecule": "COc1ccc(NC(=O)c2cc3c(s2)CCC(C)C3)cc1S(=O)(=O)N1CCOCC1", "note": "(centres undefined)", "Potency": "inconclusive: 5.62 µM [inhibitor, partial curve]"},
      {"molecule": "COc1cc(NC(=O)c2n[nH]c(=O)c3ccccc23)cc(OC)c1", "activity change, negative = inhibition": "inactive: 4.63%"},
      {"molecule": "COc1ccc(-n2nnc3c(=O)n(CC(=O)Nc4cc(C)on4)cnc32)cc1", "activity change, negative = inhibition": "inconclusive: -31.8% [inhibitor]"},
      {"molecule": "COc1ccc(/C(N)=N/OC(=O)COc2ccccc2Cl)cc1", "Potency": "inconclusive: 4.47 µM [inhibitor, partial curve]"},
      {"molecule": "NC(=O)CN1CCN(Cc2ccc3c(c2)OCO3)CC1", "activity change, negative = inhibition": "inactive: 15.9%"},
      {"molecule": "Nc1nnnn1/N=C/c1cccc(OCc2ccccc2Cl)c1", "Potency": "inconclusive: 12.6 µM [inhibitor, partial curve]"},
      {"molecule": "CCN(CC)S(=O)(=O)c1cccc(NC(=O)CNc2cccc(S(=O)(=O)N3CCCC3)c2)c1", "Potency": "active: 2.51 µM"},
      {"molecule": "Cc1noc(C)c1C(=O)Nc1nc(-c2ccc(F)c(F)c2)cs1", "Potency": "inconclusive: 10 µM [inhibitor, partial curve]"},
      {"molecule": "COc1ccc(CCNC(=S)N2CCC(C(=O)c3ccc(F)cc3)CC2)cc1OC", "Potency": "active: 0.501 µM"},
      {"molecule": "CC(=O)N1CCC(C(=O)Nc2ccc(S(=O)(=O)N3CCCC(C)C3)cc2)CC1", "note": "(centres undefined)", "Potency": "inconclusive: 11.2 µM [inhibitor, single point]"},
      {"molecule": "COc1ccc(Oc2ncnc3sccc23)cc1", "activity change, negative = inhibition": "inactive: 21.4%"},
      {"molecule": "O=C(NC1CCCc2c1cnn2-c1cc(F)cc(F)c1)c1ccncc1", "note": "(centres undefined)", "Potency": "inconclusive: 31.6 µM [inhibitor, single point]"},
      {"molecule": "CCSc1nc2cc(OC)c(OC)cc2c(=O)n1CCc1ccccc1", "Potency": "inconclusive: 2.24 µM [inhibitor, full curve, poor fit]"},
      {"molecule": "O=C1OC(c2ccccc2)(c2ccccc2)c2ccccc21", "activity change, negative = inhibition": "inactive: -12.1%"},
      {"molecule": "COC(=O)c1cccc(NC(=O)COc2cccc([N+](=O)[O-])c2)c1", "Potency": "inconclusive: 11.2 µM [inhibitor, partial curve]"},
      {"molecule": "COc1ccc(CCNC(=S)NC(=O)/C=C/c2ccc(C)cc2)cc1OC", "Potency": "inconclusive: 10 µM [inhibitor, single point]"},
      {"molecule": "Cc1nnc(NC(=O)CSc2nc(C(C)C)nc3ccccc23)s1", "Potency": "inconclusive: 5.01 µM [inhibitor, full curve]"},
      {"molecule": "COc1ccc(OCC(=O)NC(=S)Nc2ccc(S(=O)(=O)Nc3cc(C)on3)cc2)cc1", "activity change, negative = inhibition": "inactive: 25.3%"},
      {"molecule": "COc1cc(NC(=O)c2ccccc2)c(OC)cc1NC(=O)Cc1ccc(Br)cc1", "Potency": "inconclusive: 2.24 µM [inhibitor, full curve, poor fit]"},
      {"molecule": "CNC(=S)N1N=C(c2ccccc2)CC1c1ccccc1Cl", "note": "(centres undefined)", "Potency": "inconclusive: 22.4 µM [inhibitor, single point]"},
      {"molecule": "Cc1ccc(NC(=O)CSc2nnc(C3CC3)n2C)cc1S(=O)(=O)N1CCCCC1", "Potency": "inconclusive: 22.4 µM [inhibitor, single point]"},
      {"molecule": "CCc1ccc2c(c1)C(c1ccc([N+](=O)[O-])cc1)=NNC(c1ccc(C)cc1)=N2", "activity change, negative = inhibition": "inactive: -2.53%"},
      {"molecule": "CSc1nnc(Cn2c(=O)sc3ccccc32)n1-c1cccc(Cl)c1", "Potency": "inconclusive: 12.6 µM [inhibitor, single point]"},
      {"molecule": "CC(=O)N1c2ccc(S(=O)(=O)N3CCC(C(=O)N4CCN(c5ccccc5F)CC4)CC3)cc2CC1C", "note": "(centres undefined)", "Potency": "inconclusive: 22.4 µM [inhibitor, single point]"},
      {"molecule": "COc1ccc(C(CCNCc2ccccc2F)c2ccc(F)cc2)cc1", "note": "(centres undefined)", "Potency": "inconclusive: 14.1 µM [inhibitor, single point]"},
      {"molecule": "Cc1ccc(S(=O)(=O)N2CCCCC2)cc1C(=O)OC1CCCCC1=O", "note": "(centres undefined)", "Potency": "inconclusive: 31.6 µM [inhibitor, single point]"},
      {"molecule": "Cn1nnc(NC(=O)/C=C/c2ccco2)n1", "activity change, negative = inhibition": "inactive: 12%"},
      {"molecule": "CCCCN(C)CCNC(=O)c1cc2cc3ccc(OC)cc3nc2o1", "Potency": "inconclusive: 25.1 µM [inhibitor, single point]"},
      {"molecule": "N=c1c2c(-c3ccccc3)c(-c3ccccc3)n(Cc3ccccc3)c2ncn1CCCO", "Potency": "inconclusive: 14.1 µM [inhibitor, single point]"},
      {"molecule": "O=C(NCc1ccccc1CN1CCCC1)c1cccc(S(=O)(=O)Nc2ccc(F)cc2)c1", "Potency": "inconclusive: 22.4 µM [inhibitor, single point]"},
      {"molecule": "CCn1cc(C(=O)NC(C)C2CC3CCC2C3)cn1", "note": "(centres undefined)", "activity change, negative = inhibition": "inactive: 0.19%"},
      {"molecule": "Cc1cccc(NC(=O)N2CCC(n3nnc4cc(C)ccc43)CC2)c1", "Potency": "inconclusive: 10 µM [inhibitor, single point]"},
      {"molecule": "CC(C)CC(COCc1cccc(C(F)(F)F)c1)N1CCN(C(=O)c2cccc(C(F)(F)F)c2)CCC1=O", "note": "(centres undefined)", "Potency": "inconclusive: 11.2 µM [inhibitor, single point]"},
      {"molecule": "O=C(Cn1cnc2c(OCc3ccccc3)ncnc21)NCCCN1CCCC1=O", "Potency": "active: 0.562 µM"},
      {"molecule": "Cc1ccc(CNC(=O)C2(S(=O)(=O)c3ccccc3)CC=CC2)cc1", "activity change, negative = inhibition": "inactive: 2.55%"},
      {"molecule": "CC1=CC(=C(C#N)c2nc3ccccc3s2)C=C(C)N1c1ccc(F)cc1F", "Potency": "inconclusive: 7.94 µM [inhibitor, partial curve]"},
      {"molecule": "CC(C)Nc1nc(-c2ccccc2)nc(-n2ccnc2)n1", "Potency": "active: 2.82 µM"},
      {"molecule": "Nc1nc(F)cc(N2CCCCCC2)n1", "activity change, negative = inhibition": "inactive: 14%"},
      {"molecule": "COc1cccc(NC(=O)c2ccc3c(c2)CCN3S(C)(=O)=O)c1", "Potency": "inconclusive: 0.891 µM [inhibitor, full curve, poor fit]"},
      {"molecule": "C#CCn1c(=NC(=O)c2ccc(Cl)s2)sc2cccc(OC)c21", "activity change, negative = inhibition": "inactive: -4.45%"},
      {"molecule": "CCC(C(=O)NC1CCCC1)N(Cc1ccco1)C(=O)Cn1nnc(-c2ccc(C)cc2)n1", "note": "(centres undefined)", "Potency": "inactive and inconclusive: 22.4 µM [inhibitor, single point]"},
      {"molecule": "COc1cccc(CNCc2cccnc2)c1OCc1ccccc1", "Potency": "inconclusive: 5.01 µM [inhibitor, single point]"},
      {"molecule": "C=CCC[C@@H](Cc1ccc(F)cc1)C(=O)OC[C@@H](NC(=O)[C@@H](CC=C)CC(=O)N[C@@H](CO)Cc1ccccc1)C(C)(C)C", "activity change, negative = inhibition": "inactive: 5.35%"},
      {"molecule": "CN1CCN(C(=O)Nc2ccc3c(c2)N(C)C(=O)c2ccccc2S3)CC1", "Potency": "inconclusive: 31.6 µM [inhibitor, single point]"},
      {"molecule": "COc1ccc(CNC(=O)CCSCc2ccccc2C)cc1", "activity change, negative = inhibition": "inactive: 4.59%"},
      {"molecule": "COC(=O)C12OCC34C(CC5C(C)=C(O)C(=O)CC5(C)C3C(O)C1O)OC(=O)C(OC(=O)/C=C(\\C)C(C)C)C24", "note": "(centres undefined)", "Potency": "inconclusive: 1.41 µM [inhibitor, full curve]"},
      {"molecule": "Cc1nc(-c2ccccc2)cc(-c2ccccc2)n1", "Potency": "inconclusive: 11.2 µM [inhibitor, partial curve]"},
      {"molecule": "CCOc1cccc(/C=N/Nc2nc(N3CCCC3)nc(N3CCCC3)n2)c1O", "Potency": "inconclusive: 22.4 µM [inhibitor, single point]"},
      {"molecule": "COc1ccc(C(=O)Nc2sc3c(c2C(=O)NCc2ccco2)CCCC3)cc1OC", "Potency": "inconclusive: 4.47 µM [inhibitor, full curve]"},
      {"molecule": "COc1ccc(NC(=O)c2cc(-c3ccco3)on2)cc1", "activity change, negative = inhibition": "inactive: -15.2%"},
      {"molecule": "CCn1c(/C=C/Nc2ccccc2)[n+](CC)c2cc(Cl)c(Cl)cc21", "Potency": "inconclusive: 17.8 µM [inhibitor, partial curve, poor fit]"},
      {"molecule": "COc1ccc(C2=NNC(=Nc3cc(S(=O)(=O)N(C)C)ccc3C)SC2)c(OC)c1", "Potency": "active: 12.6 µM"},
      {"molecule": "CN(C)c1ccc(/C=N/NC(=O)c2ccc(-n3cnnn3)cc2)cc1", "activity change, negative = inhibition": "inactive: -3.83%"},
      {"molecule": "CCn1c2ccccc2c2cc(/C=N/NC(=O)c3cccc(C)c3)ccc21", "Potency": "inconclusive: 3.16 µM [inhibitor, single point]"},
      {"molecule": "Cc1ccccc1C(=O)N1CCC(C(=O)Nc2cccc(S(=O)(=O)N3CCCCC3)c2)CC1", "Potency": "inconclusive: 31.6 µM [inhibitor, single point]"},
      {"molecule": "CCn1nc(C)c(/C=N/NC(=O)Cn2nc(C)cc2C)c1C", "activity change, negative = inhibition": "inactive: 1.22%"},
      {"molecule": "O=C(c1ccc2nccnc2c1)N1CCCC(N2CCN(c3ccc(F)cc3)CC2)C1", "note": "(centres undefined)", "Potency": "inconclusive: 22.4 µM [inhibitor, single point]"},
      {"molecule": "Cn1c(=O)c2[nH]c(CCCCCCCc3nc4ccccc4[nH]3)nc2n(C)c1=O", "Potency": "active: 8.91 µM"},
      {"molecule": "CCOC(=O)C1=CN(Cc2ccco2)S(=O)(=O)NC1c1ccc(F)c(Cl)c1", "note": "(centres undefined)", "activity change, negative = inhibition": "inactive: -11.1%"},
      {"molecule": "COc1c(O)cc(O)c2c(=O)cc(-c3ccccc3)oc12", "Potency": "inconclusive: 12.6 µM [inhibitor, partial curve]"},
      {"molecule": "CC1CCN(S(=O)(=O)c2cccc(C(=O)N3CCN(c4ccc(F)cc4)CC3)c2)CC1", "Potency": "inconclusive: 31.6 µM [inhibitor, single point]"}
    ]}
  ]
}
